From the RNAGym collection of RNA variant scans (doi:10.7554/elife.90254)
Read counts are not given, so values of variants with three or more changes are uncertain.

B1: LINE1-mini (parent)
chain: GGCAGAGCUCAACACAGCGUGGCAAAGUGGCUGUGGCUAGACUGCC

Variants of: B1
Assay: self-cleavage, relative activity (ratio to wild type); higher = more cleavage; in vitro, sequencing; the parent is a self-cleaving ribozyme

Variant	self-cleavage
G27U G33C U38A	0.07
G30A A39C U43C	0.04
G29U G30C G40U	0.13
G35C C37G C42U	0.12
G29U G33U A39G	0.04
G35C A39C C42A	0.08
G30A G36A A41U	0.07
G35C G36A C45A	0.04
G27A U38G C45U	0.02
U32A G33C G35U	0.08
U32A U43A C46A	0
C31U A39C C46A	0.16
G30A C37A A41G G44C	0.05
U32A G40A C45A	0.06
G33U U38G G44A	0.02
C31A U38C A39U	0.02
G29A U34G U43A	0.37
U32A G33U A41G	0
G27A U38C G40A C45A	0.03
U34G G40U C46G	0.03
G29U G36C A39C	0.02

Variant	self-cleavage
G29C U34G G40U C42G	0.01
U34A A39C C46G	0.06
U32G G36U C42U	0
G27C C31G G33C G35U U43C	0.02
G29U U38A A41C	0
C31U G36A G40U	0.03
C31U G36A A39G	0.01
G30U G33U C42U	0.03
G27U G30C U34G	0.03
G29C C31A G35C C45A	0.02
G27U U38G A39U C46U	0.05
C31A A41U C46U	0.06
G30A G33U G44U	0.39
G27U U32C C42U	0.05
U32C U38C G40U	0.03
G30A U32C U34G A39G C46U	0.05
G33U G40A A41U C45A	0.11
C31G U32G U38G C42U	0.06
C31U C42G U43C	0.04
G30C U34G C46G	0.03
G29C U38C A41G C42A	0.01

Variant	self-cleavage
C31G G35C U43C	0.07
U28A G30U U32A A41G	0.16
C31U G35C G36U	0.1
G27U G29C U43C	0.01
C31A G35U G36U	0.03
G27U G36A C42U	0.07
U28G G29A C31U	1.15
U32A G44U C45A	0.05
G29A G30U G36C	0.04
G30A C37U G44U	0.01
G29U U38C G44A C46A	0.1
C31A G33A U43C	0.03
U34G C37G G40A	0.05
G35C G36A G40A	0.08
U28G G29U G33U U38A	0.02
G29A G30U G44U	0.37
G27U C31G C42G	0.01
G29C C37G U38C A41U	0.01
U28G U32A U38C	0.12
G35C A39G C45U	0.04
C31A U32C A41U	0.12

Variant	self-cleavage
U32C G35C G40A	0.16
U32G U34C G36C	0.06
G27U G36C A39C	0.02
G29U U38C G40A	0.25
G27C G29A G33C C37A	0.04
G27U C45U C46U	1.66
G27C G30C U38C	1.23
G33C U38A A41G	0.15
G29C G30A U34A	0.02
C31G A41U C46G	0.1
G30A A39U A41U C46U	0.17
G27U U34C C37G U43G	0
U28C G30A G33U U38C	0.04
G27U A39C C42G	0.02
U32C C37G U43G C45U	0.2
G27U G30U U32G U38C	0.01
G29C C31G G35U G40C	0.03
G29C G36U G44A	0.23
U32G C37G G44U	0.04
U32G C37G G44A	0.03
U28C A41U U43C	0.09
